From PubChem BioAssay AID1478 (National Center for Advancing Translational Sciences (NCATS), 2009)
Out of some 200,000 compounds screened, about 860 (0.43%) were called active. The shares of active, inactive and inconclusive entries below differ from those in the screen. The call rests on the fitted dose curve; in most records, active means well fitted inhibition curve with a large enough effect; inconclusive means small, poorly fitted or top-dose-only effect; inactive means flat fitted curve, though single readings scatter. Where the call is inconclusive, the potency comes from a doubtful curve fit.

The compounds below were run against Cruzipain (Trypanosoma cruzi) (UniProt P25779) (assay: qHTS Assay for Promiscuous and Specific Inhibitors of Cruzain (with detergent)). Conditions: purified cruzain, Z-FR-AMC fluorescence, 0.01% Triton.
Procedure, shortened: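 Sodium acetate buffer (100 mM, pH 5.5) containing 5 mM DTT and 0.01% Triton X-100 hosted 1.5 nM cruzain and test compound for 15 min at room temperature. Cleavage of 2 uM Z-FR-AMC was then tracked by fluorescence.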
Further: nearly all actives have a fitted effect of over 40% in size.
Potency means the concentration at half of the fitted maximal effect; tags describe the fitted curve by direction and shape.
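Wherever max response, negative = inhibition is given: plate controls were neutral wells for no effect and buffer without enzyme for full effect.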

Chain of UniProt P25779 (P25779 whole entry, looked up): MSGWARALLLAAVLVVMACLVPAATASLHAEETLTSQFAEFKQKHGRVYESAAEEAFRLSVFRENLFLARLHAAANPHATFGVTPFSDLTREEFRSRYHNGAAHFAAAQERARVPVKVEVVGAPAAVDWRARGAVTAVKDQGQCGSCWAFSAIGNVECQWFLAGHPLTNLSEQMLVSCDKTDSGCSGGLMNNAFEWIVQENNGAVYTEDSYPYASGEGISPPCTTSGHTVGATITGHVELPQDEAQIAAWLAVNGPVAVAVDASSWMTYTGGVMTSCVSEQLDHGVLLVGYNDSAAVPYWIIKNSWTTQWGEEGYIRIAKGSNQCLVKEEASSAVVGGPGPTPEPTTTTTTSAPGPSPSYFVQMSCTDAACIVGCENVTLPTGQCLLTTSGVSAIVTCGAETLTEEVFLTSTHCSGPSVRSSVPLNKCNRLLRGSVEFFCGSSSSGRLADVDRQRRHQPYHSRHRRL

Structure (SMILES) | Potency | max response, negative = inhibition
COc1ccc(Nc2c3c(nc4ccc(NC(=O)/C=C/c5cccc(OC)c5OC)cc24)CCCC3)cc1OC | inconclusive: 31.6 µM [inhibitor, single point] | –
S=C1NCCc2ccccc2C1c1ccccc1Cl (stereo unspecified) | inconclusive: 7.94 µM [inhibitor, partial curve] | –
Cc1ccc(NC(=O)c2ccc(OC(=O)COc3ccc(Cl)cc3C)cc2)cc1 | – | inactive: 7.05%
COc1ccc(Cl)cc1NC(=O)C(=O)N/N=C/c1cc(C)n(-c2ccc(C)cc2)c1C | – | inactive: -8.9%
CC(C)c1ccc(C2CC(c3ccc(Br)cc3)=NN2C(N)=S)cc1 (stereo unspecified) | inconclusive: 2.24 µM [inhibitor, full curve, poor fit] | –
N#Cc1nc(-c2ccc(Cl)cc2)oc1NCc1ccco1 | inconclusive: 20 µM [inhibitor, single point] | –
Cc1ccc2c(c1)c(=O)c1c3n2CCN(C(=O)CCl)C3CC1 (stereo unspecified) | active: 15.8 µM | –
CCc1ccc(N2C(=O)NC(=O)/C(=C\c3cccn3CCOc3ccc(C(C)C)cc3)C2=O)cc1 | – | inactive: -0.954%
Nc1ccc(-c2nc3ccc(N)cc3o2)cc1 | active: 20 µM | –
CC(C)(C)c1cc(C(=O)/C=C/c2ccc(C(=O)O)cc2)cc(C(C)(C)C)c1 | inconclusive: 14.1 µM [inhibitor, partial curve] | –
COc1nc(Nc2cccc(C)c2)nc(N2CCCCC2)n1 | – | inactive: -4.5%
O=C(c1ccc2c(c1)OCCO2)C1CCN(C(=O)c2ccc(F)c(F)c2)CC1 | – | inactive: 1.18%
CCOC(=O)C(NC(=O)c1ccc(Cl)cc1Cl)(Nc1ccc(C)cc1)C(F)(F)F (stereo unspecified) | – | inactive: 1.84%
CCOC(=O)c1ccc2c(c1)C1C=CCC1C(C(=O)O)N2 (stereo unspecified) | inconclusive: 31.6 µM [inhibitor, single point] | –
CSCC[C@H](NC(=O)COc1ccc(Cl)cc1)c1nc2ccccc2[nH]1 | active: 7.08 µM | –
O=C(COC(=O)CNC(=O)c1ccccc1Cl)Nc1ncc(C(F)(F)F)cc1Cl | active: 1.58 µM | –
CCOc1ccc2c(C)c(Cl)c(=O)oc2c1 | inconclusive: 25.1 µM [inhibitor, single point] | –
O=C1C(=O)c2ccccc2-c2ccccc21 | inconclusive: 31.6 µM [inhibitor, single point] | –
CCCCn1c2ccccc2c2nnc(SCC(=O)Nc3ccc(NC(C)=O)cc3)nc21 | inconclusive: 25.1 µM [inhibitor, partial curve] | –
O=C(O)c1cc2ccc3ccccc3c2oc1=O | inconclusive: 31.6 µM [inhibitor, single point] | –
Cn1c(=O)c2c(ncn2CC(=O)Nc2cc(Cl)c(Cl)cc2Cl)n(C)c1=O | inconclusive: 25.1 µM [inhibitor, single point] | –
CCCC1=NN2C(=N)/C(=C\c3ccc(SCc4ccco4)o3)C(=O)N=C2S1 | inconclusive: 31.6 µM [inhibitor, single point] | –

Structure (SMILES) | Potency | max response, negative = inhibition
COc1ccc(CNC(=O)CCc2c(C)c3cc4c(C)coc4c(C)c3oc2=O)cc1OC | – | inactive: -0.0226%
Cc1cccc(C)c1NC(=O)CS(=O)(=O)c1nc(-c2ccc(Cl)cc2)cn1-c1ccccc1 | inconclusive: 12.6 µM [inhibitor, partial curve] | –
O=c1oc2c(CN3CCOCC3)c(O)c(Cl)cc2c2c1CCC2 | active: 25.1 µM | –
CC(C)c1ccc(NC(=O)COC(=O)[C@H](CCC(N)=O)NC(=O)c2ccc(F)cc2)cc1 | inconclusive: 22.4 µM [inhibitor, single point] | –
COc1ccc(-c2nc3scc(CCNS(=O)(=O)c4ccc5c(c4)OCCO5)n3n2)cc1 | – | inactive: -6.34%
CCCCCCNC(=O)c1cc(-c2ccco2)nc2ccccc12 | inconclusive: 28.2 µM [inhibitor, single point] | –
CSCCC(NC(=O)c1ccc([N+](=O)[O-])cc1Cl)C(=O)OCC(=O)NC1CCCC(C)C1C (stereo unspecified) | inconclusive: 35.5 µM [inhibitor, single point] | –
CCOC(=O)c1cnc(-n2nc(C)cc2C)nc1N(CC)CC | inconclusive: 7.08 µM [inhibitor, single point] | –
O=C(O)CC(C(=O)O)N1C(=O)/C(=C/c2ccc(-c3nc4ccccc4s3)o2)SC1=S (stereo unspecified) | inconclusive: 28.2 µM [inhibitor, single point] | –
N#Cc1c(C(F)(F)F)cc(-c2ccco2)nc1SCc1ccccn1 | inconclusive: 20 µM [inhibitor, single point] | –
CCOP(=O)(OCC)c1nc(-c2cccc3ccccc23)oc1NCCc1ccc(OC)cc1 | inconclusive: 3.16 µM [inhibitor, full curve, poor fit] | –
COC(=O)C1=C(C(=O)OC)[C@@H]2N(Cc3ccccc3)c3ccccc3[C@@]23C[C@@H](C(=O)OC)N(C(=O)NCc2ccccc2)C3=C1 | – | inactive: 0.0768%
O=C(Nc1ccc(Cl)cc1C(=O)O)c1ccc2c(c1)C(=O)N(Cc1ccco1)C2=O | inconclusive: 28.2 µM [inhibitor, single point] | –
COc1ccccc1C(=O)Nc1c2c(nn1-c1cccc(C)c1C)CS(=O)(=O)C2 | inconclusive: 25.1 µM [inhibitor, single point] | –
CCOc1ccc(NC(=O)Cn2c(=O)oc3cc(S(=O)(=O)NC4CCCC4)ccc32)cc1 | – | inactive: -4.04%
COc1ccc(-c2ccnc3nc(-n4cccc4)nn23)cc1 | – | inactive: -0.551%
Cc1ccc(NC(=O)CCn2nc(C)c(S(=O)(=O)N3CCCCC3)c2C)cc1Cl | – | inactive: -8.2%
CCCCNC(=O)c1ccc2nc(-c3ccco3)c(-c3ccco3)nc2c1 | active: 14.1 µM | –
C=CCn1c(=O)c(C#N)cc2c(=O)n3ccccc3nc21 | inconclusive: 12.6 µM [inhibitor, partial curve] | –
Cc1c([N+](=O)[O-])cc(C(=O)Oc2ccc(Br)cc2C(=S)N2CCCCC2)cc1[N+](=O)[O-] | – | inactive: -1.53%
CCC(=O)Nc1nnc(SCC(=O)N2c3ccccc3CC2C)s1 (stereo unspecified) | active: 3.55 µM | –
COc1ccc(C)cc1NC(=O)C(OC(=O)CNC(=O)c1cccc(F)c1)c1ccccc1 (stereo unspecified) | inconclusive: 31.6 µM [inhibitor, single point] | –

Structure (SMILES) | Potency | max response, negative = inhibition
COc1ccc(CCNC(=O)CC2SC(=NCCC(C)C)NC2=O)cc1OC (stereo unspecified) | inconclusive: 6.31 µM [inhibitor, single point] | –
Cc1ccc(-n2nc3ccc(NC(=O)/C=C/c4ccco4)cc3n2)cc1 | – | inactive: -7.18%
CN1c2cc3c(cc2N=C(c2ccc(C(=O)O)cc2)c2ccccc21)C(C)(C)CCC3(C)C | inconclusive: 17.8 µM [inhibitor, partial curve] | –
Cc1ccc(NC(=O)Cn2cc(C(=O)c3cccs3)c3ccccc32)cc1C | – | inactive: -5.85%
NC(=O)CC[C@@H]1NC(=O)[C@H](CO)NC(=O)c2cc([N+](=O)[O-])cc(I)c2NCCCC[C@@H](C(N)=O)NC(=O)[C@H](Cc2ccc(O)cc2)NC1=O | inconclusive: 25.1 µM [inhibitor, single point] | –
CCNc1ncc2nc(CCc3ccccc3)c(=O)n(CCC#N)c2n1 | inconclusive: 31.6 µM [inhibitor, single point] | –
COC(=O)Cn1c(=NC(=O)c2ccc(OC)cc2)sc2cc(OC)ccc21 | inconclusive: 28.2 µM [inhibitor, single point] | –
Cc1c2ccncc2c(C)c2c1[nH]c1ccccc12 | inconclusive: 25.1 µM [inhibitor, partial curve] | –
O=CNc1ccc(S(=O)(=O)NCc2ccccc2)cc1 | – | inactive: 1.74%
N#Cc1c(N)c(C#N)c(-c2ccc3c(c2)OCO3)c2c1CCCC2 | inconclusive: 22.4 µM [inhibitor, single point] | –
C#CCOCCOCCOCCNc1nc(N2CCN(C(=O)[C@H](C)n3cc(CCCN=C(N)N)nn3)CC2)nc(N2CCN(C(=O)[C@H](Cc3ccc(O)cc3)n3cc(CCO)nn3)CC2)n1 | inconclusive: 31.6 µM [inhibitor, single point] | –
O=c1[nH]c2cc3c(cc2cc1CN(Cc1cccs1)Cc1nnnn1Cc1ccco1)OCCO3 | inconclusive: 39.8 µM [inhibitor, single point] | –
Cn1c(=O)nc2n(Cc3ccccc3)c3ccccc3cc-2c1=O | inconclusive: 25.1 µM [inhibitor, single point] | –
CCNC(=O)c1cc2c(=O)n3cccc(C)c3nc2n(CCc2ccccc2)c1=N | inconclusive: 25.1 µM [inhibitor, single point] | –
O=C(CNS(=O)(=O)c1ccccc1)OCC(=O)c1cccc([N+](=O)[O-])c1 | inconclusive: 28.2 µM [inhibitor, single point] | –
Nc1cnn([C@@H]2O[C@H](CO)[C@@H](O)[C@H]2O)c(=O)n1 | – | inactive: 5.01%
C/C(=N\NC(=O)c1c(Cl)c(C)nn1C)c1cccc(NC(=O)COc2ccccc2)c1 | inconclusive: 31.6 µM [inhibitor, single point] | –
CC(C)n1c(=N)c(C(=O)NCCc2ccccc2)cc2c(=O)n3ccccc3nc21 | inconclusive: 31.6 µM [inhibitor, single point] | –
Cc1ccc(OCCNC(=O)c2ccco2)cc1C | – | inactive: 0.167%
CN(c1ccccc1C(=O)O)S(C)(=O)=O | – | inactive: 3.82%
N#Cc1nc(N2CCCCC2)nc(N2CCOCC2)n1 | active: 0.891 µM | –
COc1ccc(C2CC(c3ccccc3)=NN2C(=O)COC(=O)CNC(=O)c2ccccc2)cc1 (stereo unspecified) | active: 8.91 µM | –
